From article PMC13083723 (Patterns, 2026)
Out of some 5,400 compounds screened, about 190 (3.5%) showed an effect of 50% or more. The list shows a part of the results.

What follows are molecules tested on Vero-E6 (assay: primary screen, phospholipidosis by LipidTOX staining; higher = more effect of the substance). Details: 10 µM.
Method in brief: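 Single-concentration screen at 10 μM, with DMSO 0.1 v/v % and amiodarone 10 μM as controls. Read-out is LipidTOX Red phospholipid staining, which tolerates aldehyde fixation, in Vero-E6 cells.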
`Cc1cc(C(=O)Nc2cccc(C(=O)Nc3cccc(C(F)(F)F)c3)c2)on1` showed a result_ITMP of -3.16%. `N#C/C(=C\c1ccc(O)c(O)c1)C(=O)NCc1ccccc1` showed a result_ITMP of -0.81%. Work on `O=C(/C=C/c1ccccc1)NCCO` yielded a result_ITMP of -0.62%. With `O=C(O[C@H]1CN2CCC1CC2)N(Cc1cc(F)c(F)c(F)c1)c1cccc(F)c1` the result_ITMP was 71.4%. With `O=C([O-])c1ccccc1Nc1cc(Cl)ccc1C(=O)[O-]` the result_ITMP was -3.54%. In the case of `CC1(C)[C@@H](OC(=O)CCC(=O)O)CC[C@]2(C)[C@H]3C(=O)C=C4[C@@H]5C[C@@](C)(C(=O)O)CC[C@]5(C)CC[C@@]4(C)[C@]3(C)CC[C@@H]12`, the result_ITMP is reported as -2.7%. In the case of `CC[C@H](CO)Nc1nc(NCc2ccc(-c3ccccn3)cc2)c2ncn(C(C)C)c2n1`, the result_ITMP is reported as -3.04%. Work on `O=C1CCCC(=O)C1C(=O)c1ccc(C(F)(F)F)cc1[N+](=O)[O-]` yielded a result_ITMP of -5.98%. `CC(C(=O)O)c1ccc(C(=O)c2ccccc2)s1` (centres unmarked) was tested, and the result_ITMP was -1.57%. `C=CC(=O)Nc1cccc(Oc2nc(Nc3ccc(N4CCN(C)CC4)cc3)nc3ccsc23)c1` was tested, and the result_ITMP was 37.8%. `NC(=O)NS(=O)(=O)c1ccc(N)cc1` was tested, and the result_ITMP was 2.89%. `CC(=O)N(CC(O)CN(C(C)=O)c1c(I)c(C(=O)NCC(O)CO)c(I)c(C(=O)NCC(O)CO)c1I)c1c(I)c(C(=O)NCC(O)CO)c(I)c(C(=O)NCC(O)CO)c1I` (centres unmarked) showed a result_ITMP of -5.4%. With `c1ccc(CN(CC2=NCCN2)c2ccccc2)cc1` the result_ITMP was 16.9%. In the case of `CN(C)Cc1ccc(S(=O)(=O)n2ccc(/C=C/C(=O)NO)c2)cc1`, the result_ITMP is reported as 12.1%. With `CN/C(=N\C#N)NCCSCc1nc[nH]c1C` the result_ITMP was -2.74%. Molecule `O=C1O[C@@H](CO)[C@H](O)[C@@H](O)[C@@H]1O` has a result_ITMP of -9.63%. With `COc1cc(/C=C/C(=O)N2CCCCCCC2)cc(OC)c1OC` the result_ITMP was -10.7%. `Fc1ccc(CN2CCC(Nc3ccc(C(F)(F)F)nn3)CC2)cc1F` showed a result_ITMP of 16.7%. `O=C(O)C1=CCCN(CCON=C(c2ccccc2)c2ccccc2)C1` was tested, and the result_ITMP was 5.78%. With `c1nc(CC2CCNCC2)c[nH]1` the result_ITMP was 0.67%. Molecule `N=C(Nc1ccc(I)cc1)NC1C2CC3CC(C2)CC1C3` (centres unmarked) has a result_ITMP of 0.78%. Work on `Cc1cc(OCc2nnc(SC3CCCC3)n2-c2cccnc2)ccc1-c1ccc(S(C)(=O)=O)cc1` yielded a result_ITMP of 9.92%. Molecule `CNC(=O)c1ccc(C)c(-n2c(C)cc(OCc3ccc(F)cc3F)c(Br)c2=O)c1` has a result_ITMP of -5.67%. For `CC(=O)NCCc1c[nH]c2ccccc12`, the result_ITMP was -3.74%. For `C/C=C/C/C=C/CCC(=O)[C@H]1O[C@H]1C(N)=O`, the result_ITMP was 5.72%. With `CNC(=N)NCCC[C@H](N)C(=O)O` the result_ITMP was -4.2%. Molecule `CN1C2CCC1CC(OC(=O)C(CO)c1ccccc1)C2` (centres unmarked) has a result_ITMP of -0.43%. `COCCOc1ccc(N2CCN(CCn3ncc4c3nc(N)n3nc(-c5ccco5)nc43)CC2)cc1` was tested, and the result_ITMP was 0.68%. With `C=CCSCC1Nc2cc(Cl)c(S(N)(=O)=O)cc2S(=O)(=O)N1` (centres unmarked) the result_ITMP was -5.85%. `COc1cc2nc(N3CCC(N4CCCCC4)CC3)nc(NC3CCCCCC3)c2cc1OC` showed a result_ITMP of 18.5%. With `CCCCCCCCCCCC[N+](C)(C)CCOc1ccccc1` the result_ITMP was 7.61%. Work on `NC(=O)c1cccc(N)c1` yielded a result_ITMP of -8.29%. `CC(C)NCC(O)c1ccccc1Cl` (centres unmarked) gave a result_ITMP of 35.6%. `CC(C)(O)c1ccccc1CC[C@@H](SCC1(CC(=O)[O-])CC1)c1cccc(/C=C/c2ccc3ccc(Cl)cc3n2)c1` was tested, and the result_ITMP was 3.69%. With `Cc1ccc(-n2nc(C(C)(C)C)cc2NC(=O)Nc2ccc(OCCN3CCOCC3)c3ccccc23)cc1` the result_ITMP was -0.6%. `CCCCCCCCCCCCCCCC=O` gave a result_ITMP of -3.07%. `NS(=O)(=O)c1ccc(-n2nc(C(F)(F)F)cc2-c2ccc(Cl)cc2)cc1` gave a result_ITMP of -1.56%. With `c1ccc(CNc2ncnc3nc[nH]c23)cc1` the result_ITMP was -8.79%. In the case of `O=C(O)CCc1cc(I)c(Oc2ccc(O)cc2)c(I)c1`, the result_ITMP is reported as -2.71%. `CN(C)C/C=C/C(=O)Nc1cc2c(Nc3ccc(F)c(Cl)c3)ncnc2cc1O[C@H]1CCOC1` gave a result_ITMP of 108%. Molecule `CN1Cc2c(N)cccc2C(c2ccccc2)C1` (centres unmarked) has a result_ITMP of 0.64%. Work on `Nc1ccc(C(=O)OCC(O)CO)cc1` (centres unmarked) yielded a result_ITMP of -4.7%. For `C1=C/COCc2cc(ccc2OCCN2CCCC2)Nc2nccc(n2)-c2cccc(c2)COC/1`, the result_ITMP was 78.8%. `CN1CCC2=C(C1)C(c1ccccc1)c1ccccc12` (centres unmarked) gave a result_ITMP of 6.76%. `O=C1NC(=O)C(=Cc2ccc(-c3ccc(F)cc3)o2)S1` (stereo in doubt) showed a result_ITMP of -6.32%. Work on `CC(C)c1cc(C(C)C)c(-c2csc(N(CCN(C)C)Cc3cccnc3)n2)c(C(C)C)c1` yielded a result_ITMP of 9.08%. Molecule `CCOC(=O)NNc1ccc(N(CC)CC(C)O)nn1` (centres unmarked) has a result_ITMP of 0.64%. Work on `C#CCC(Cc1cnc2nc(N)nc(N)c2n1)c1ccc(C(=O)N[C@@H](CCC(=O)O)C(=O)O)cc1` (some centres unmarked) yielded a result_ITMP of -4.66%. `O=C(O)c1ccccc1NC(=O)N1CCC(c2ccccc2C(F)(F)F)CC1` was tested, and the result_ITMP was -0.92%. Molecule `COCCNC(=O)Cn1cnc([N+](=O)[O-])n1` has a result_ITMP of -8%. For `CC(C)(C)NCC(O)COc1cccc2[nH]c(=O)[nH]c12` (centres unmarked), the result_ITMP was -1.16%. `COc1c(N2CCNC(C)C2)c(F)cc2c(=O)c(C(=O)O)cn(C3CC3)c12` (centres unmarked) was tested, and the result_ITMP was 3.33%. In the case of `O=C(c1ccccc1)c1ccc2n1CCC2C(=O)O` (centres unmarked), the result_ITMP is reported as -4.44%. Molecule `CCOC(=O)[C@@](C)(N)Cc1ccc(O)c(O)c1` has a result_ITMP of -8.9%. Work on `Cc1cccc(-c2nc(C(C)(C)C)[nH]c2-c2ccc3nccnc3c2)n1` yielded a result_ITMP of -5.96%. `CCN(CC)CCCC(C)Nc1nc(C)cc(Nc2ccc3nc(C)cc(N)c3c2)n1` (centres unmarked) gave a result_ITMP of 2.84%. Work on `OCc1ccccc1O` yielded a result_ITMP of 0.98%. Work on `CNC(=O)[C@H]1O[C@@H](n2cnc3c(NCc4cccc(I)c4)nc(Cl)nc32)[C@H](O)[C@@H]1O` yielded a result_ITMP of 0.72%. `C=C[C@]1(C)CC[C@@H](C(=C)C)C[C@H]1C(=C)C` was tested, and the result_ITMP was 18.4%. For `O=C(Nc1ccccc1Br)N[C@@H]1CCN(c2ccc(C(F)(F)F)cn2)C1`, the result_ITMP was -3.98%. Molecule `COC(=O)N1CC[C@@H]2[C@H]1CCC[C@@]2(O)C#Cc1cccc(C)c1` has a result_ITMP of 2.06%. `COc1ccc(S(=O)(=O)N(CCO)c2ccccc2CN(C)C/C=C/c2ccc(Cl)cc2)cc1` gave a result_ITMP of 13.6%. In the case of `NS(=O)(=O)c1cccc2c1c([N+](=O)[O-])cc1[nH]c(=O)c(=O)[nH]c12`, the result_ITMP is reported as -1.31%. Molecule `CN(CC[C@@H](Oc1ccc(-c2ccccc2)cc1)c1ccc(F)cc1)CC(=O)O` has a result_ITMP of 0.25%. `O=[N+]([O-])NC1=NCCN1Cc1ccc(Cl)nc1` showed a result_ITMP of -8.38%. `CCCCCCCCCCCCCCCCCC[S+](CCC)c1ccccc1C(=O)OCC` (centres unmarked) gave a result_ITMP of 9.69%. In the case of `CN(C)c1ccc2nc3ccc(N(C)C)cc3[s+]c2c1`, the result_ITMP is reported as 5.81%. With `CN(C)CC(c1ccc(O)cc1)C1(O)CCCCC1` (centres unmarked) the result_ITMP was -2.56%. `NC(=O)CCCCn1ccc(/N=C(\N)NCC(F)(F)F)n1` gave a result_ITMP of -0.35%. In the case of `O=C(NOCC(O)CO)c1cc(Br)c(F)c(F)c1Nc1ccc(I)cc1F` (centres unmarked), the result_ITMP is reported as 4.38%. `COc1ccc2c3c([nH]c2c1)[C@H](CC(C)C)N1C(=O)[C@H](CCC(=O)OC(C)(C)C)NC(=O)[C@@H]1C3` was tested, and the result_ITMP was -1.42%. With `C=CC(=O)Nc1cccc(Nc2nc(Nc3ccc(OCCOC)cc3)ncc2F)c1` the result_ITMP was 32.3%. For `CCCOc1ccc(S(=O)(=O)N2CCN(CCO)CC2)cc1-c1nc2c(CCC)cn(CC)c2c(=O)[nH]1`, the result_ITMP was 10.7%. `Cc1c(-c2ccccc2F)[nH]c(N)c1C#N` gave a result_ITMP of -4.53%. With `CCC(=O)Nc1cccc(Oc2nc(Nc3ccc(N4CCN(C)CC4)cc3OC)ncc2Cl)c1` the result_ITMP was -5.58%. With `CCCCc1ccc(NS(=O)(=O)c2ccc(F)cc2)cc1` the result_ITMP was -5.44%. Molecule `Cn1ccc2cc3c(cc21)CCN3C(=O)Nc1cccnc1` has a result_ITMP of -2.4%. `O=C(Nc1ccc(Br)cc1)c1cc(Br)cc(Br)c1O` showed a result_ITMP of -3.53%. For `C[C@H](CCC(=O)O)[C@H]1CCC2C3C(CC[C@@]21C)[C@@]1(C)CC[C@@H](O)C[C@H]1C[C@@H]3O` (some centres unmarked), the result_ITMP was -2.91%. `CN1CCN(c2nc3ccccc3nc2Cl)CC1` gave a result_ITMP of 5.5%. `O=C([O-])[C@H](O)[C@@H](O)[C@H](O)[C@H](O)C(O)CO` (some centres unmarked) was tested, and the result_ITMP was -2.51%. `CC(C)c1c(NC(=O)Nc2ccc(Cl)cc2)c(=O)n(-c2ccccc2)n1C` showed a result_ITMP of 0.5%. Molecule `CCC(=O)O[C@]1(C(=O)CO)CC[C@H]2[C@@H]3CCC4=CC(=O)CC[C@]4(C)[C@H]3CC[C@@]21C` has a result_ITMP of -0.65%. Molecule `O=C(O)Cc1cccc2c(=O)cc(-c3ccccc3)oc12` has a result_ITMP of -2.66%. In the case of `O=[N+]([O-])c1c(Nc2cc(F)cc(Cl)c2)ccc2nonc12`, the result_ITMP is reported as -6.04%. In the case of `CCCSc1ccc2nc(NC(=O)OC)[nH]c2c1`, the result_ITMP is reported as 6.15%. `Clc1cccc2c1CN(C1=NCCN1)C2` gave a result_ITMP of -1.86%. Molecule `c1ccc(-c2ccc(CNc3nc(-c4ccccn4)nnc3-c3ccccc3)cc2)cc1` has a result_ITMP of -2.74%. Work on `CO/N=C(\C(=O)N[C@@H]1C(=O)N2C(C(=O)OC(C)OC(C)=O)=C(COC(N)=O)CS[C@H]12)c1ccco1` (some centres unmarked) yielded a result_ITMP of -4.17%. `CCNC1=Nc2ccc(Cl)cc2C(C)(c2ccccc2)O1` (centres unmarked) showed a result_ITMP of -2.56%. Molecule `NNC(=O)CSc1nc2scc(-c3ccccc3)c2c(=O)n1-c1ccccc1` has a result_ITMP of -5.94%. With `CC[C@@H](C)C[C@@H](C)CCCCCCCCC(=O)N[C@H]1C[C@@H](O)[C@@H](NCCN)NC(=O)[C@@H]2[C@@H](O)CCN2C(=O)[C@H]([C@H](O)CCN)NC(=O)[C@H]([C@H](O)[C@@H](O)c2ccc(O)cc2)NC(=O)[C@@H]2C[C@@H](O)CN2C(=O)[C@H]([C@@H](C)O)NC1=O` the result_ITMP was -8.5%.
